Out of some 52,000 compounds screened, about 4,300 (8.3%) were called active. No stated cut-off is given here; in the data, active means survival mostly below about 52% (no sharp cut-off); inactive means mostly above about 56%. This is one part of the list.

This assay concerns DeltatarO mutant. Briefly: S. aureus survival, RN4220 and DeltatarO strains – OD600, teichoic acid synthesis inhibitors, primary screen (AID 463173). The note with it: S. aureus RN4220 wild type/DeltatarO growth, OD600, 18 h, stronger effect = lower value, screened at 18.75 µg/mL (by protocol).
Regarding `COc1cc(OC)cc(N2C(=O)N(Cc3ccc(C(C)(C)C)cc3)c3ccccc3S2(=O)=O)c1`, the survival is inactive: 76%. Regarding `Cc1nn(-c2ccc(N3CCCCC3)nn2)c(C)c1CCC(=O)Nc1ccc(F)cc1F`, the survival is inactive: 124%. Consider `COC(=O)c1scc(-c2ccc(C)cc2)c1S(=O)(=O)N1CCN(c2ccccc2)CC1`, for which the survival was inactive: 72%. Turning to `O=C(CCSCc1cccc(Cl)c1)N1CCN(c2ccc(Cl)cc2)CC1`, the survival is inactive: 85%. Consider `Cc1ccccc1C(=O)N1CC(=O)Nc2ccc(Cl)cc2C1c1ccccc1` (configuration not stated), for which the survival is inactive: 58%. As for `O=C(c1cccc(Cl)c1)N1c2nc(-c3ccco3)nn2C2(CCCCC2)[C@@H]2CCCC[C@@H]21`, the survival is inactive: 60%. Consider `CCOc1ccc(NS(=O)(=O)c2ccc(C(=O)N(C)C)s2)cc1`, for which the survival is inactive: 76%. `C#CCn1c(=NC(=O)c2ccc3c(c2)OCCO3)sc2cc(OC)c(OC)cc21`: the survival is inactive: 102%.

Regarding `COc1ccc(CCNC(=O)CCCCn2c(=O)c3ccccc3n(CC(=O)Nc3c(C)cccc3C)c2=O)cc1OC`, the survival was inactive: 115%.

Consider `O=C(O)C1C2CCCCC21` (configuration not stated), for which the survival is inactive: 71%. As for `Cc1cc(C)cc(NC(=O)CSc2nc(=O)n(CCN3CCOCC3)c3c2CCC3)c1`, the survival is inactive: 78%. For `COC(=O)c1c(NC(=O)Cc2coc3cc(C)ccc23)sc2c1CCC2`, the survival is inactive: 98%.

For `O=C(NCc1cccs1)c1ccc2c(c1)N(Cc1cccc(F)c1)C(=O)c1ccccc1S2`, the survival was inactive: 85%.

As for `CCOC(=O)c1noc2nc(C)n(CC(=O)NC(C)CC)c(=O)c12` (configuration not stated), the survival is inactive: 126%.

For `CC1(C)C/C(=N\O)C(C(O)c2ccccc2)C(C)(C)N1` (configuration not stated), the survival is inactive: 90%. As for `Nc1c(C(=O)Nc2ccccc2Cl)c2ccccn2c1C(=O)c1ccccc1`, the survival is inactive: 66%. In the case of `CCOc1ccc(NC(=O)c2c(NCc3cccc(OC)c3OC)sc3c2CCC3)cc1`, the survival was inactive: 75%.

As to `CCc1ccc(NC(=O)CN(c2ccc(Cl)cc2)S(=O)(=O)c2ccsc2C(=O)OC)cc1`, the survival was inactive: 134%. Consider `O=C(C1CCCN(S(=O)(=O)c2cccc3nsnc23)C1)N1CCN(c2ccccc2)CC1` (configuration not stated), for which the survival was inactive: 79%. For the compound `COc1ccc(OC)c(CNC(=O)c2ccc3c(c2)c(C)c(C)n3Cc2ccc(Cl)cc2)c1`, the survival was inactive: 89%. In the case of `CCOC(=O)N1CCN(C(=O)CN(c2ccccc2F)S(=O)(=O)c2ccc(C)cc2)CC1`, the survival was inactive: 55%. In the case of `Cc1cc(N2CCC(C)CC2)nc2ccc(NC(=O)Cc3c(F)cccc3Cl)cc12`, the survival was inactive: 56%.

As to `Cc1ccc(Cn2cc(S(=O)(=O)c3cccc(Cl)c3)c(=O)c3cc(F)c(N4CCCCC4)cc32)cc1`, the survival is inactive: 78%. With `O=C(NCCc1ccccc1Cl)C1CCN(c2nc3ccccc3nc2C(F)(F)F)CC1`, the survival was active: 37%.

With `CC1(C)O[C@H]2[C@@H](O1)[C@@H](C(=O)Nc1ccccc1C(F)(F)F)O[C@@H]1OC(C)(C)O[C@@H]12`, the survival is inactive: 106%. As to `COc1ccc(-n2c(-c3ccco3)nc3c(cnn3-c3ccc(Cl)cc3)c2=O)cc1`, the survival was inactive: 78%.

For `O=C(CSc1ccc(-c2cccs2)nn1)Nc1ccccc1C(F)(F)F`, the survival is inactive: 70%. With `Cc1ccc(NC(=O)C2CCCN(C(=O)c3cnn(-c4ccc(F)cc4)c3-n3cccc3)C2)c(Cl)c1` (configuration not stated) the figure was inactive: 87%; with `Cc1ccccc1CNC(=O)C(C)N(c1ccccc1)S(C)(=O)=O` (configuration not stated), inactive: 69%. As to `C#CCNC(=O)NC1CCCN(S(=O)(=O)c2ccc(C)cc2)C1` (configuration not stated), the survival was inactive: 100%.

Regarding `O=C(CCC1N=C2c3ccccc3N=C(SCc3ccc(F)cc3)N2C1=O)NCCc1ccccc1` (configuration not stated), the survival was inactive: 89%. `CCOc1ccc(/C=C/c2nc(C#N)c(NCc3ccccc3)o2)cc1`: the survival was inactive: 66%.

Take `COc1ccc(Cl)cc1NC(=O)C(C)Sc1nc2c(c(=O)[nH]1)CCCC2` (configuration not stated): the survival was inactive: 53%. On to `CC(=O)c1cccc(NC(=O)CSc2nc(=O)n(Cc3ccco3)c3c2CCC3)c1`, for which the survival is inactive: 83%.

As for `CCOc1ccccc1CNC(=O)c1ccc2c(c1)N(Cc1ccc(C)cc1)CCS2`, the survival is inactive: 76%. For the compound `Cc1cc(C)n(C(=O)CCCC(=O)O)n1`, the survival is inactive: 74%. `CCCCN(CC)C(=O)c1nn(C)c2c1CSc1ccccc1-2`: the survival is inactive: 103%. With `Cc1oc(-c2cccc(Cl)c2)nc1CS(=O)(=O)CC(=O)NC(C)CCc1ccccc1` (configuration not stated) the figure was active: 32%. On to `Cc1nc2scc(C)n2c(=O)c1S(=O)(=O)NCCc1ccccc1`, for which the survival is inactive: 138%. As to `Cc1cc(C)cc(N2C(=O)N(Cc3cccc(F)c3)c3ccccc3S2(=O)=O)c1`, the survival was inactive: 82%. Consider `COc1ccc(N2CCN(C(=O)CSc3n[nH]c(-c4ccccc4Cl)n3)CC2)cc1`, for which the survival is inactive: 81%. As to `COc1ccc(Nc2oc(-c3ccc(COc4ccccc4C)o3)nc2C#N)cc1`, the survival is inactive: 59%. On to `Cc1cc(C)c(NC(=O)C(C)n2nnc3sc4c(c3c2=O)CCCC4)c(C)c1` (configuration not stated), for which the survival was inactive: 81%. Consider `Cc1ccc(C)c(CN2C(=O)c3ccccc3S(=O)(=O)c3ccc(C(=O)NCCC4=CCCCC4)cc32)c1`, for which the survival was inactive: 58%.

Consider `CCN(C(=O)c1cc2c(=O)oc3ccc(C)cc3c2s1)c1ccccc1C`, for which the survival was inactive: 63%.

For `CCN(CC)S(=O)(=O)c1ccc2nc(NC(=O)c3cncc(Br)c3)sc2c1`, the survival was inactive: 80%. As for `Cc1cccn2c(=O)c(C(=O)NC(C)c3ccccc3)cnc12` (configuration not stated), the survival was inactive: 70%. `Cc1ccc(OCc2nc(-c3ccc(C(=O)NCc4ccc(OC(C)C)cc4)cc3)oc2C)cc1`: the survival is inactive: 91%. As to `Cc1ccc(NC(=O)C2CCN(c3nn4cc(-c5ccc(C)cc5)nc4s3)CC2)cc1`, the survival was inactive: 67%.

For `CCCCCn1c(=O)[nH]c2cc(C(=O)N3CCN(c4cccc(C(F)(F)F)c4)CC3)ccc2c1=O`, the survival was inactive: 66%. For the compound `Cc1ccc(CNC(=O)CNS(=O)(=O)c2cccs2)cc1`, the survival is inactive: 80%. Turning to `COc1ccc(CNC(=O)c2oc3c(c2C)-c2nn(Cc4ccc(Cl)cc4)cc2CC3)cc1`, the survival is inactive: 63%. On to `CC(C)(C)c1ccc(C(=O)Nc2sc3c(c2C#N)CCC(C(C)(C)C)C3)cc1` (configuration not stated), for which the survival was inactive: 56%. With `O=C(Nc1ccc(Br)cc1)C1CCCN1S(=O)(=O)c1ccc(F)cc1` (configuration not stated) the figure was inactive: 66%; with `CCOc1ccc(NC(=O)Cn2c(=O)n(CC(=O)NCc3ccccc3Cl)c(=O)c3sccc32)cc1`, inactive: 157%. `CCc1ccccc1NC(=O)Nc1nnc(N(CC)c2ccccc2)s1`: the survival is inactive: 76%.

Regarding `Cc1cc(NC(=O)CN2C(=O)c3cccnc3Sc3ccccc32)ccc1Br`, the survival was inactive: 80%. Take `c1cc2cc(C3=NCCN3)ccc2cc1C1=NCCN1`: the survival is inactive: 85%.

Turning to `COc1ccc(OC)c2sc(N(Cc3cccnc3)C(=O)c3ccco3)nc12`, the survival was inactive: 88%. For `Cc1ccc(CNC(=O)c2cc(-c3ccc(Cl)cc3)on2)cc1`, the survival is inactive: 93%. Turning to `Cc1ccc2oc(=O)c(S(=O)(=O)c3ccc(C(C)(C)C)cc3)cc2c1`, the survival is inactive: 92%. With `CCCNC(=O)N(C)c1ncnnc1NC`, the survival is inactive: 98%. For `Cc1nc2ccn(Cc3cccnc3)c(=O)c2cc1C(=O)N1CCN(c2ccc(F)cc2)CC1`, the survival is inactive: 115%. For the compound `COC(=O)c1ccccc1NC(=O)c1cnc2c(-c3cccc(C)c3)c(C)nn2c1C`, the survival was inactive: 128%.

As for `Cc1cc(NC(=O)Cc2ccccc2)no1`, the survival was inactive: 75%.

Turning to `C=CCN1C(=O)CN=C1Nc1ccccc1`, the survival was inactive: 88%. On to `CN(C)CCNc1oc(-c2ccc(COc3ccc(Cl)cc3)o2)nc1C#N`, for which the survival is inactive: 88%. For `CCc1ccc(C(=O)c2cn(Cc3ccc(F)cc3)c3cc(OC)c(OC)cc3c2=O)cc1`, the survival is inactive: 58%. As for `Cc1cc(C)cc(Oc2nc3c(C)cccn3c(=O)c2/C=C(\C#N)c2nc3ccccc3s2)c1`, the figure is inactive: 131%; as for `COc1ccc(CCNC(=O)C(C)n2c(=O)cc(C(F)(F)F)c3c(C)nn(C)c32)cc1OC` (configuration not stated), inactive: 89%; as for `COc1ccc(N2CCN(Cc3nnc(-c4cccc(Br)c4)o3)CC2)cc1`, inactive: 77%. For the compound `CCS(=O)(=O)N1CC(=O)N(c2ccc(Cl)cc2)C(C)(C(=O)NC2CCCCCC2)C1` (configuration not stated), the survival was inactive: 115%.

Turning to `Cc1nnc(NC(=O)CSCc2cc(=O)c3ccccc3[nH]2)s1`, the survival was inactive: 105%.

Consider `COc1cc(OC)c(NS(=O)(=O)c2c(C(=O)N3CCC(C)CC3)c(C)n(C)c2C)cc1Cl`, for which the survival was active: 17%. Turning to `CCOC(=O)c1c(N2C(=O)C3C4C=CC(O4)C3C2=O)sc2c1CCCC2` (configuration not stated), the survival is inactive: 96%.

In the case of `Cc1cc(Nc2ccc(C(=O)O)c(O)c2)n2ncnc2n1`, the survival was inactive: 72%. On to `COc1ccc(CCNC(=O)CCn2c(=O)c3ccccc3n(Cc3ccccc3)c2=O)cc1OC`, for which the survival was inactive: 92%.

For `CC(C)c1nn2c(=O)cc(COC(=O)c3ccccc3NC(=O)c3cccc(Cl)c3)nc2s1`, the survival was inactive: 88%. As to `O=C(NCc1ccco1)c1ccc2c(c1)N(Cc1ccc(Cl)cc1)C(=O)c1ccccc1S2`, the survival was inactive: 71%. As to `CCOc1ccc(Nc2nc3c(S(=O)(=O)c4ccc(C(C)C)cc4)nnn3c3ccsc23)cc1`, the survival is inactive: 53%.

Turning to `Cc1cc2nc(-c3ccc(NC(=O)c4cc5ccccc5o4)cc3)oc2cc1C`, the survival is inactive: 51%. For `Cc1ccc(C)c(Cn2c(C(=O)OC(C)C)cc3c2ccn3C)c1`, the survival is inactive: 100%.

As to `COc1ccc(CCn2c3c(c(=O)[nH]c2=O)C(NC(=O)c2ccc(C(C)(C)C)cc2)(C(F)(F)F)C(=O)N3)cc1OC` (configuration not stated), the survival was inactive: 91%. For `COc1ccccc1Cc1nc2ccccc2nc1SCC(=O)N1CCN(c2ccccc2)CC1`, the survival is inactive: 99%. With `CC(=O)c1cc(-c2ccc(F)cc2)n(CC(=O)Nc2cc(C)cc(C)c2)c1C`, the survival was inactive: 93%. With `COc1cccc(NC(=O)/C(C#N)=C/c2c(C)n(Cc3ccc(Cl)cc3)c3ccccc23)c1`, the survival is inactive: 77%.

Turning to `CC(=O)Nc1ccc(S(=O)(=O)NC2=NCN(CCO)CN2)cc1`, the survival is inactive: 89%.

These data come from PubChem BioAssay AID463173 (ICCB-Longwood Screening Facility, Harvard Medical School, 2010).
